Source: PubChem BioAssay AID1346428 (National Center for Advancing Translational Sciences (NCATS), 2018)
The whole screen tested about 48,000 compounds, of which about 1,200 (2.5%) were called active. About 2% were inconclusive and are not listed.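 How the source made its calls: active means activation of at least 60% and not above a set upper limit (about 1 call in 100 departs from these limits); inconclusive means activation of 40% to 60%, or above that upper limit; inactive means activation under 40%.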 Some of the results follow.

What follows are compounds tested against Probable G-protein coupled receptor 32 (Homo sapiens) (UniProt O75388) (assay: qHTS for Agonists of Human Resolvin D1 Receptor DRV1). Settings: CHO-K1 GPR32 beta-arrestin PathHunter luminescence, 90 min; at 76.9 µM; hits give high values; zero percent set by DMSO-only wells.
In short: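 Beta-arrestin recruitment read-out: luminescence from complemented beta-Gal in CHO-K1 GPR32 PathHunter cells, measured 1 h after detection reagent at ambient temperature following 90 min compound exposure at 37 °C; DMSO served as basal (EC0) control.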
Further: 0% is about no effect.

UniProt O75388, sequence (O75388 whole entry, looked up): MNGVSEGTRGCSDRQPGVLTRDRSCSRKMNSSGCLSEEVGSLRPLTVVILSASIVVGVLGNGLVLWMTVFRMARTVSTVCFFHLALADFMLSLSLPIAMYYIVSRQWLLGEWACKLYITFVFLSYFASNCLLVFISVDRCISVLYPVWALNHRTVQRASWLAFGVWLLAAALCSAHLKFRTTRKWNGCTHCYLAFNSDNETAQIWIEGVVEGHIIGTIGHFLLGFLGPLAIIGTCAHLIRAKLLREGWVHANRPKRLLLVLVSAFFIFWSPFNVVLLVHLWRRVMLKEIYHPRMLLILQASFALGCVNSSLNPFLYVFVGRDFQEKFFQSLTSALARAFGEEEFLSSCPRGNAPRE

activation, active:
CCC(C)NC(=O)c1ccc2c(c1)sc1nc(-c3ccc(OC)cc3)cn12 (centres undefined) 80.5%
Cc1cccc(-c2nc(SCc3cc(=O)c4c(C)cc(C)cc4[nH]3)n[nH]2)c1 116%

activation, inactive:
COC(=O)CN1C(=O)CSc2ccc(S(=O)(=O)Nc3ccc(F)c(Cl)c3)cc21 1.34%
CSc1ncc(C(=O)Nc2cc(C)cc(C)c2)c(-c2ccccc2)n1 15.4%
COc1ccc(C(=O)NCCSc2c[nH]c3ccccc23)cc1OC -17.1%
Clc1ccc(CSc2ccc(-c3cccs3)nn2)cc1 -15%
CN1CCN(C(CNC(=O)c2ccc(F)cc2)c2ccc3c(c2)OCO3)CC1 (centres undefined) 10.3%
COc1ccc(OC)c(CCNC(=O)c2c(C)oc3ncn(CC(C)C)c(=O)c23)c1 10.3%
Cc1cc(C)c(Cn2c(=O)n(CCC(=O)NCCc3ccccc3)c(=O)c3ccccc32)c(C)c1 -2.19%
CC(=O)N1CCc2c(sc3c2c(=O)n(Cc2ccccc2)c(=O)n3Cc2ccc(Cl)cc2)C1 -4.4%
Nc1ccc(C(=O)N2CC3CC(CN(Cc4ccccc4)C3)C2)cc1 -15.1%
O=C(O)c1sc(Nc2ccccc2)nc1-c1ccccc1 -4.05%
CCOC(=O)Cn1c(=O)oc2cc(S(=O)(=O)N3CCN(c4cccc(Cl)c4)CC3)ccc21 -0.781%
CCOCCCn1c(SCC(=O)Nc2ccccc2CC)nc2ccccc2c1=O -16.5%
Cc1ccc(NC(=O)c2cccc3c(=O)c4c([nH]c23)CCCC4)c(C)c1 4.24%
Cc1ccc(NC(=O)Nc2nnc(SCC(=O)N(C(C)C)C(C)C)s2)cc1 40.5%
COc1cccc(CNC(=O)c2c(C)nn(-c3ccc(F)cc3)c2-n2cccc2)c1 23.1%
CCOC(=O)c1sc2ccccc2c1S(=O)(=O)Nc1ccc(OC)c(Cl)c1 -40.5%
CCOc1ccc(NC(=O)Nc2nnc(N3CCCCC3C)s2)cc1 (centres undefined) 8.97%
COc1ccc(N2CCN(C(=O)c3cc4c(=O)oc5ccc(C)cc5c4s3)CC2)cc1 -3.78%
Cc1ccc(N2CCN(S(=O)(=O)c3nnc(NC(=O)c4ccccc4)s3)CC2)cc1 35.2%
Cc1c(C)n(Cc2ccccc2)c2ccc(C(=O)NCC(C)c3ccccc3)cc12 (centres undefined) -17.3%
N[C@H](C(=O)O)[C@H]1C[C@@H]1C(=O)O 0.873%
CCOC(=O)CNC(=O)c1cc2c(=O)oc3ccccc3c2s1 -4.13%
CCOc1ccc(CCNC(=O)c2ccc(-n3c(C)cc4c3CCCC4)cc2)cc1OCC -11.9%
Cc1cc(C)n(CCC(=O)Nc2ccc(Cl)cc2)n1 0.555%
Cc1ccc(C)c(N2CCN(c3nc4ccc(C)cc4nc3-n3nc(C)cc3C)CC2)c1 1.32%
O=C(Nc1ccccc1C(=O)OCc1cc(=O)n2nc(C3CC3)sc2n1)c1ccc(Cl)cc1 -8.74%
O=C(Cn1cnc2nc3c(cc2c1=O)CCCC3)Nc1ccc(F)cc1Cl -12.4%
CCOCCc1nnc(NC(=O)C(=O)c2cc(C)n(-c3ccc(C)c(C)c3)c2C)s1 27.7%
CCCCNc1nc2c(S(=O)(=O)c3ccc(C)cc3)nnn2c2ccsc12 -9.51%
CCOc1ccc(N2CC(NC(=O)c3ccc4c(c3)OCO4)CC2=O)cc1 (centres undefined) 5.17%
CCOc1ccc(CCNC(=O)c2ccc3c(c2)N(Cc2ccc(F)cc2)CCS3)cc1 -7.15%
COc1ccccc1CNC(=O)CSc1nc(-c2ccc(OC)c(OC)c2)cc(C(F)(F)F)n1 -21%
Cc1ccc(N2CC(NC(=O)c3ccc(S(=O)(=O)N(C)C)cc3)CC2=O)cc1C (centres undefined) 4.89%
COC(=O)c1sccc1S(=O)(=O)N(CC(=O)Nc1cc(C)ccc1C)c1ccc(C)c(C)c1 -13.7%
O=C(CSc1nc2c([nH]c3ccccc32)c(=O)n1-c1cccc(Cl)c1)N1CCCC1 3.46%
O=C(Cn1cc(S(=O)(=O)Cc2cccc(Cl)c2)c2ccccc21)Nc1ccccc1C(F)(F)F -8.08%
COc1ccc(N2CCN(C(=O)Nc3cn(CC(C)C)c(=O)c4ccccc34)CC2)cc1 -4.93%
O=C(Nc1cc(Cl)ccc1Cl)c1ccc2c(c1)N(Cc1cccc(Cl)c1)C(=O)c1ccccc1S2=O (centres undefined) -10.9%
O=C(NCc1cccs1)c1ccc2c(c1)sc1nc(-c3ccc(F)cc3)cn12 -5.75%
Cc1c(Cl)cccc1NC(=O)c1cc(-c2ccc3c(c2)OCO3)on1 9.07%
COc1c(Cl)cc(C(=O)Nc2cc(-c3nc4ccccc4[nH]3)ccc2C)cc1Cl 5.4%
Cc1nn(-c2ccccc2)c(OC(=O)c2ccccc2)c1S(=O)(=O)c1ccccc1 -14.1%
Cc1ccc2oc(C(=O)Nc3c(C(=O)Nc4cccc(Cl)c4)oc4ccccc34)cc(=O)c2c1 4.75%
Cc1ccccc1Cn1ccn(-c2ccc(F)c(F)c2)c(=O)c1=O -5.01%
O=C(Nc1ccccc1C(F)(F)F)N1CCOc2ccc(Cl)cc21 31.5%
Cc1ccc(N2C(=O)CS(=O)(=O)C23C(=O)Nc2ccccc23)cc1C (centres undefined) 16.6%
CCOC(=O)CSc1nc2ccccc2c(=O)n1-c1ccc(C(=O)NCCOC)cc1 -12.8%
CCOC(=O)N1CCC(NC(=O)c2ccc3c(c2)N(Cc2ccccc2C)C(=O)c2ccccc2S3=O)CC1 (centres undefined) -8.54%
CCOc1ccccc1-c1noc(CSc2nnc(-c3ccccc3)n2-c2ccc(OC)cc2)n1 8.87%
CC(C)c1ccc(C2CC(=O)Nc3cc4c(cc32)OCCO4)cc1 (centres undefined) 29.3%
CN(Cc1nc(-c2ccc(Cl)cc2)no1)S(=O)(=O)c1ccccc1 19.4%
CCCn1c(=N)c(C(=O)NCC2CCCO2)cc2c(=O)n3cc(C)ccc3nc21 (centres undefined) -7.54%
